Results reported in the supplement of paper PMC11417369.
± gives the standard deviation of the averaged measurements. Some of the results follow.

Test system: PfAP2-I AP2 domain 3 (GST-tagged)
Test: gcPBM binding intensity (ln(normalized median fluorescence intensity)); higher = stronger DNA binding
Procedure, shortened: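 The highest Masliner-normalised natural-log median intensity across replicate spots of either probe orientation is reported as binding intensity. GST-tagged P. falciparum DNA-binding domains expressed in E. coli were applied for 1 h to an Agilent 4 × 180k array of primer-extended double-stranded 36-bp intergenic genomic probes plus negative controls, and bound protein was detected with Alexa488 anti-GST antibody and scanned at 488 nm.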

Sequence | gcPBM binding intensity (ln)
AAGAACTCATTAATAATGTAATATTTTATAATTTAG [CACACA_negctrl_site321] | 7.13 ± 0.5
TACAATTGTAAAGGCGCACACATATATATATATATA [CACACA_site1392] | 9.51 ± 0.13
GATATTATTGCATATTTACACACGTACTAATTTAAA [CACACA_site8231] | 8.8 ± 0.47
TTTTTATAATAAAAAAATATAACTATATTAAGCCAC [CACACA_negctrl_site555] | 8.23 ± 0.31
TAATATATAACGTGCACACACACATTTACGTATGAA [CACACA_site1832] | 10.86 ± 0.064
AGCACCCACCAACACACACACACACCCACCCACCCA [CACACA_site8011] | 8.86 ± 0.7
TATACATATTTCTATTGTACATAAACTAAATCTTCA [XGTACX_site28] | 7.49 ± 0.41
ACAATAAATATGTGGTTGCACTTATAATATATTTAT | 8.66 ± 0.4
TATTTTTATCAATTCACACATAAATATATTTATATG [CACACA_site5547] | 7.76 ± 0.37
CACAGTGATATAAAAACACACATGAATTAAAATTTC [CACACA_site4999] | 7.41 ± 0.65
TCCCTTAATTTTGTGTGTACATATAATATATTTTTA [XGTACX_site2789] | 7.98 ± 0.42
GTTAATTATTAAATTTGTACTCATATATATTATATA [XGTACX_site6862] | 7.89 ± 0.46
CATACATACAGACACACACACATATTTATATTTATA [CACACA_site6172] | 8 ± 0.33
TTTTTTTTTTAATTAACACACATAAATATAAATATA [CACACA_site7527] | 7.95 ± 0.49
AAAAAAAAAAAAAAAAGTACATATGCTCAAGAGATG [XGTACX_site3783] | 8.7 ± 0.42
TAATATTGACTATATACACACATATAAATATAAATA [CACACA_site6414] | 7.54 ± 0.4
TATATATATATATATACATGCATCATTGTTCACCTT [TGCATGCA_site177] | 9.34 ± 0.24
CATTCAAAGAAAAACAGTACGTGTAGCAAAAGGCCT [XGTACX_site266] | 8.03 ± 0.73
TAAATAATATAATTATGTACGTATTTCTTTATTTTA [XGTACX_site8410] | 7.69 ± 0.099
GCTGAAAATAAATGAAGTACACAAGTAATATATATA [XGTACX_site6205] | 8.46 ± 0.64
TAAGCCACCATATTTACACACACATCAAAATGTATT [CACACA_site1815] | 8.01 ± 0.41
ATTCTATATGTTACATAAACCTATATTTTTTTTTTT [CACACA_negctrl_site860] | 7.75 ± 0.46
ATAAAGCCATACAATACACACATTTTACATGTCGGT [CACACA_site3265] | 7.68 ± 0.42

Sequence | gcPBM binding intensity (ln)
GAAAAAAGAAATTTATGTACATACATATATATATAT [XGTACX_site7888] | 9.33 ± 0.26
ATATGTAAAATATGGGGTACGAAGGTAGGTAGGTAA [XGTACX_site1392] | 8.41 ± 0.74
TATAAATATAAATACTGTACATTATATTATATAATA [XGTACX_site2480] | 7.53 ± 0.38
CGTTACACAAAAATATGTACATATATACATATATAT [XGTACX_site4631] | 7.96 ± 0.45
TAAAAATAATATTAATGTACATTACATATTAATATA [XGTACX_site1019] | 7.4 ± 0.34
TATTCCCCCAAACACACACACACACCCACATACCAC [CACACA_site2304] | 9.19 ± 0.11
ATATATATATATATGTGTACATATTAGTGATATAAT [XGTACX_site7161] | 9.2 ± 0.38
AATGCGCATTTTTTTTTTTTTTTTTTTTTTTTTTTT [XGTACX_negctrl_site258] | 10.05 ± 0.035
ATCATTTAAACAATATGTACTCATTGTAGATATGGT [XGTACX_site5088] | 8 ± 0.23
TGAATAAAATATTATACACACATATGTATTTAACAT [CACACA_site4694] | 7.71 ± 0.35
AATGGGATCATGGTATGTACTTACACAAATGAATTA [XGTACX_site5389] | 7.58 ± 0.54
TTGTATTTACTATACACACACATACATACATACATA [CACACA_site4603] | 8 ± 0.71
TTATTTTTTAATTATATTCAAAATTAAAAAAAAAAA [XGTACX_negctrl_site226] | 7.57 ± 0.72
ATTAAAAAAAAAAAAAAAAAAAAAAAAAAAAAAAAA [CACACA_negctrl_site1060] | 8.37 ± 1.1
ATTGATAAATTAACTAGTACACATATAAATATATTA [XGTACX_site2325] | 7.82 ± 0.28
AATATAAATGTGATTACACACAACAGATTTAAATGG [CACACA_site4802] | 7.92 ± 0.43
TATATTTATTTTCTGTGTACACATATGTTGTGTATT [XGTACX_site7640] | 8.16 ± 0.46
TATATGTATCCATTATGTACATAATAGTAATATAAT [XGTACX_site4008] | 7.76 ± 0.39
TAAAAAATACAAGAGTGTACAAAATTTTTCTAAATG [XGTACX_site5334] | 7.97 ± 0.37
AAAACCTAGTGCATTTGTACATATTTCAATTTTAAA [XGTACX_site4582] | 10.1 ± 0.35
TATACGTGTTTTATTTGTACTTAAGCAGGTAAGCAT [XGTACX_site193] | 8.22 ± 0.7
CTATATATTTTTTCTTAACACACATATATAAAATAA [CACACA_site9165] | 7.95 ± 0.35
GTTAATTCTATGAATTGTACTTAAATATAATTATAT [XGTACX_site2785] | 7.55 ± 0.4

Sequence | gcPBM binding intensity (ln)
ATAAATACTAAAAATGAAATATAGAAAATAGCAATA [CACACA_negctrl_site501] | 7.76 ± 0.75
TATAATATATTATATACACACATTATAAAATACCCA [CACACA_site4858] | 7.86 ± 0.19
CAAAATAAAAATAACACACACATTTATATAAATACA [CACACA_site4790] | 7.71 ± 0.5
ACAGTTAAAACAATAACACACAAAGAAAAAAAAAAA [CACACA_site737] | 8.04 ± 0.85
TATATTTTTATTGAACGTACAAAAAGTCGAAAACAG [XGTACX_site3967] | 8.2 ± 0.28
TTTAAATACAGACATACACACATACACGCACATATA [CACACA_site6400] | 8.22 ± 0.29
AGGTAGAAATTGTTAAAAAATCATACATATTATATA [CACACA_negctrl_site622] | 7.49 ± 0.4
AATAATATTTAATACGCACACAATAATAATATAAAA [CACACA_site1763] | 8.33 ± 0.42
TCTTATAAAGGTAATTGTACATATTTATAATTTCTT [XGTACX_site4847] | 7.63 ± 0.3
GTGAAAGGAAAAGTTGAACACACAAAGTAAACTATA [CACACA_site9178] | 7.72 ± 0.71
ATATATTATTATACATGTACATATATAGATATATAT [XGTACX_site4358] | 7.83 ± 0.37
CACACGCACGAACACACACACATATAAATATAAATA [CACACA_site6299] | 8.38 ± 0.092
AACAATAATTTTGAATGTACATATAAATATTTTTAT [XGTACX_site5501] | 7.58 ± 0.42
ATATACATATAGGATGCACACATAATTCAAATACAA [CACACA_site8120] | 8.29 ± 0.57
AAAAAAAAGAATAGCACACACACATATATAAATATA [CACACA_site630] | 7.95 ± 0.25
TATAATGGTTCTGGTGTGCACCATGACAGAATCAAG | 9.88 ± 0.22
ATATTAAACAAACACACACACATATATATATATATA [CACACA_site3383] | 9.4 ± 0.51
AATTAATGGTTAAAGGTGCACAATACATATATTACA [GTGCAC_site9943] | 11.32 ± 0.035
TGCATATACTCAAGCACACATATATATATATATATA [CACACA_site4733] | 9.44 ± 0.58
TTTTTTTTTTTTTTTTTTTTTTTTTTTTTTTGGGGG [CACACA_negctrl_site1570] | 8.98 ± 1.1
ATATATTGAAAATATAGTACATAATAAATGTTCTTT [XGTACX_site8474] | 7.5 ± 0.39
AATAAATTTAAACACACACACACATATATATATATA [CACACA_site4621] | 9.33 ± 0.37
TATATACATAAACACACACACACATATATATATATA [CACACA_site8707] | 9.52 ± 0.76

Sequence | gcPBM binding intensity (ln)
ATAAAATAAGACAAAAAAAAAATATATATATATATA [TGCATGCA_negctrl_site314] | 9.315 ± 0.064
CCTTGTCTTTTTTTTTTTTTTTTTTCTTCTTATTTT [GTGCAC_negctrl_site523] | 7.87 ± 0.45
AAAAAAAAAAAAAAATGTACATATATATATATATTA [XGTACX_site7330] | 8.05 ± 0.26
AGTAGATATAATATATGTACATATATATATATATAT [XGTACX_site7186] | 9.26 ± 0.75
AATATAAATATAAATATAAATAAATAAATAAATAAA [CACACA_negctrl_site291] | 8.05 ± 0.81
GTAATTTTTTTCTATACACACATATATATAATATAT [CACACA_site2655] | 8.12 ± 0.58
AAAGTAAAAGGGTTTGGTACACATATAATATATTAG [XGTACX_site6036] | 7.95 ± 0.63
ATAACTTTTATTTGTACACACATACATCTATATTAT [CACACA_site6595] | 8.39 ± 0.43
AGTAAAAGAAAGCACACACACATGTATTTATGTATG [CACACA_site5998] | 8.02 ± 0.46
CATTTATATAAAGAATGTACACACAGAAATGCACAC [XGTACX_site4718] | 10.2 ± 0.2
TAGTATTTATATGATTAACACACATATGGGTATTAA [CACACA_site8363] | 7.47 ± 0.47
ATATACACCTGAGAGGTGCATATATATAAAATTTAC | 10.6 ± 0.67
CATAATAGTTATAAAATACACACCAGGCATGATAAA [CACACA_site329] | 7.61 ± 0.72
AAAAAAAAAAAAAAAAGTACTCAATAATAATTACAT [XGTACX_site670] | 8.66 ± 0.45
AATGTAGTTTATCGATGTACACAAAATAAAGAGAAG [XGTACX_site6956] | 8.64 ± 0.28
CCGTACAATTTTGTCACACATAAAATACTTATGTAT [CACACA_site4871] | 7.66 ± 0.51
ATAAATACATATAAAAGTACACACACACACATATAT [XGTACX_site1744] | 8.16 ± 0.25
ATGTGCAAATATTAAAGTACTAAATTTTATTATTTT [XGTACX_site7306] | 10 ± 0.54
TGTATATGTGAAGCAAGGGATGCGGCAGACATAACA [CACACA_negctrl_site1339] | 8.34 ± 1.1
TGAAATTTCAATACATGTACATATAAAAAAAAAAAA [XGTACX_site4424] | 7.99 ± 0.51
